Data from PubChem BioAssay AID504339 (National Center for Advancing Translational Sciences (NCATS), 2011).
About 17,000 (4.4%) of roughly 390,000 compounds were called active. Inconclusive results, whose numbers are uncertain, are shown with a selection of clear calls. Calls follow the shape of the dose curve; as a rule, active = well fitted inhibition curve with a large enough effect; inconclusive = small, poorly fitted or top-dose-only effect; inactive = no such curve, though single readings can be large or run the other way. A potency beside an inconclusive call is a rough fit, not a confirmed value. A structure can be active in one record and inactive in another.

The compounds below were run against Lysine-specific demethylase 4A (Homo sapiens) (UniProt O75164) (assay: qHTS Assay for Inhibitors of JMJD2A-Tudor Domain). Settings: AlphaScreen JMJD2A-Tudor / H3K4me3 peptide binding; activity change, negative = inhibition: at 114 µM (top of the series).
% is scaled to controls: 0 for no effect and ±100 for the full control effect; potency is read from the fitted curve at half-maximal effect; tags tell the direction and shape of the fitted curve.
Also: nearly all actives have a fitted effect of over 50% in size.

Sequence of UniProt O75164 (O75164 whole entry, looked up, the tested form may be a part): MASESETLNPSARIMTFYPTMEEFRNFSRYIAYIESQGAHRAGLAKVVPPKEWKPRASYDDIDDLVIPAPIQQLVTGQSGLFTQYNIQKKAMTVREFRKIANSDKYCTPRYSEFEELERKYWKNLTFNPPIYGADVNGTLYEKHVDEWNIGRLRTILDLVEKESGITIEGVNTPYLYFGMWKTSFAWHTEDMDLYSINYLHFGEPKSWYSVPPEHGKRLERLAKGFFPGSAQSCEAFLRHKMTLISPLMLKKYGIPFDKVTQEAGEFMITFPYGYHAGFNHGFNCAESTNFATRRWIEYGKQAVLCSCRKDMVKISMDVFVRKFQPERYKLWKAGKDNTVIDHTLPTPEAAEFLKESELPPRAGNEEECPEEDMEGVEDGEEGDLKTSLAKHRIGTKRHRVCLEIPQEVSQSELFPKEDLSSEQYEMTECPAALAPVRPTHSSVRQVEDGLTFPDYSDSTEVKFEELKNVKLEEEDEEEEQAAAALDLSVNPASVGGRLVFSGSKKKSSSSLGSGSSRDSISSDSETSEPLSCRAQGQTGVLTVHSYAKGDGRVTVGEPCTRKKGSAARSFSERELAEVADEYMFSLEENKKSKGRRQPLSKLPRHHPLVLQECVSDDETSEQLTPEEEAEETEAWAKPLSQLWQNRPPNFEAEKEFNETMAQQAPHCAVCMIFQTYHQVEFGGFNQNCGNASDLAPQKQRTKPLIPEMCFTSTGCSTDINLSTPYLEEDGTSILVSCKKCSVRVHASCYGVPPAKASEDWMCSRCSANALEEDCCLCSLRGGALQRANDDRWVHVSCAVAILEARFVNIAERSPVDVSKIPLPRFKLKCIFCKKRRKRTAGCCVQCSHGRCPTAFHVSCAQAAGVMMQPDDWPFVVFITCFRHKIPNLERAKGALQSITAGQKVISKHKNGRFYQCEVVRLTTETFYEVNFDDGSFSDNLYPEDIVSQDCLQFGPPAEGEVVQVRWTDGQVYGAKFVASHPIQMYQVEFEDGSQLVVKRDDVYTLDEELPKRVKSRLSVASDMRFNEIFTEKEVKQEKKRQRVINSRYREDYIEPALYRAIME

Potency, inconclusive:
COc1ccc(Nc2nc(N)c3cc(OC)c(OC)cc3n2)cc1 56.2 µM [inhibitor, partial curve]
CCCN(CCC)c1nc(-c2ccccn2)nc2ccccc12 50.1 µM [inhibitor, partial curve, poor fit]
Cc1cc(-c2nnc(-c3ccccc3)c(-c3ccccc3)n2)c(C)o1 50.1 µM [inhibitor, partial curve]
O=[N+]([O-])c1cccc(-c2c(-c3ccccc3)ncc3cc(F)ccc23)c1 50.1 µM [inhibitor, partial curve]
CCN(c1ccccc1C)S(=O)(=O)c1nnc(NC(=O)c2ccccc2C)s1 8.91 µM [inhibitor, full curve]
COc1ccc(CNC(=O)Cc2coc3ccc(C)cc23)cc1 7.94 µM [inhibitor, full curve, poor fit]
O=C(O)CCn1cc(/C=C2/NC(=S)N(c3ccccc3)C2=O)c(-c2ccccc2)n1 56.2 µM [inhibitor, partial curve]
O=C(COC(=O)c1cc(=O)[nH]c(=O)[nH]1)Nc1cccc(S(=O)(=O)N2CCOCC2)c1 22.4 µM [inhibitor, partial curve, poor fit]
Cc1ccc(S(=O)(=O)c2nnn3c2nc(NCCCN2CCCC2=O)c2ccccc23)cc1C 100 µM [inhibitor, single point]
COc1ccc(Oc2cc(NN3CCCCC3)c([N+](=O)[O-])cc2[N+](=O)[O-])cc1OC 12.6 µM [inhibitor, full curve]
CCOc1ccc(C(=O)/C=C/c2cn(CC(O)CN3CCc4ccccc43)c3ccccc23)cc1 (stereo not given) 10 µM [inhibitor, full curve]
COc1cc(OC)c(OC)cc1CN1CCc2nc(N3CCN(C)CC3)ncc2C1 79.4 µM [inhibitor, single point]
COc1ccccc1/C=C1\SC(=S)N(CCC(=O)Nc2ccc(C(=O)O)c(O)c2)C1=O 8.91 µM [inhibitor, single point]
CCCOc1ccc(NC(=O)Cc2ccc(S(=O)(=O)N3CCOCC3)s2)cc1OCCC 44.7 µM [inhibitor, partial curve]
COc1ccccc1-n1cnnc1SCC(=O)c1cc(C)n(Cc2cccs2)c1C 25.1 µM [inhibitor, full curve]
Nc1cccc(S(=O)(=O)N2CCN(S(=O)(=O)c3c(F)cccc3F)CC2)c1 89.1 µM [inhibitor, single point]
CC(C)CCn1c(=O)c2c(nc3n2CCCN3Cc2ccccc2)n(C)c1=O 56.2 µM [inhibitor, partial curve]
COc1cc(CNn2cn[nH]c2=S)cc(Br)c1OCc1ccccc1F 56.2 µM [inhibitor, partial curve, poor fit]
COc1ccc2[nH]c3c(c2c1)CCN1C(=O)N([C@@H](C)C(=O)NCCc2ccc(F)cc2)C(=O)[C@]31C 56.2 µM [inhibitor, partial curve]
O=C(c1cc([N+](=O)[O-])[nH]n1)N1CCSCC1 89.1 µM [inhibitor, single point]
CCN(CC)c1ccc(/C=N/n2c(-c3ccccc3Br)n[nH]c2=S)cc1 44.7 µM [inhibitor, partial curve]
CCn1c(SCC(=O)N/N=C/c2ccc(C)o2)nnc1-c1ccc(C(C)(C)C)cc1 70.8 µM [inhibitor, single point]
Clc1cccc(C2=NC(c3cccs3)=Nc3ccc(Br)cc3N2)c1 22.4 µM [inhibitor, partial curve]
O=C(/C=C/c1ccccc1Cl)OCC(=O)c1ccc[nH]1 50.1 µM [inhibitor, partial curve]
CCN1CCSc2ccc(C(=O)NCc3ccccc3C)cc21 79.4 µM [inhibitor, partial curve]
COc1ccc(CC(=O)Nc2ccc(S(=O)(=O)Nc3nccs3)cc2)cc1 14.1 µM [inhibitor, full curve, poor fit]
Cc1cc(OCCN2CCC(Cc3ccccc3)CC2)ccc1[N+](=O)[O-] 39.8 µM [inhibitor, partial curve]
O=C(Nc1cccc(N2CCCC2)c1)c1cccs1 50.1 µM [inhibitor, partial curve]
Nc1nnc(CC(=O)N/N=C\c2ccc(-c3cccc(Cl)c3)o2)s1 31.6 µM [inhibitor, partial curve]
CCOc1cccc(CC(=O)N2CCc3c([nH]c4ccccc34)C2c2ccc(SC)cc2)c1OCC (stereo not given) 17.8 µM [inhibitor, full curve, poor fit]
COc1cccc(CN2CCN(c3ncccn3)CC2)c1 1 µM [inhibitor, full curve, poor fit]
Cc1cc(NC(=O)c2ocnc2C)no1 17.8 µM [inhibitor, full curve, poor fit]
O=C(CNC1CCCCCC1)c1cccs1 20 µM [inhibitor, single point]
CCOc1ccc(NC(=O)CN(C)C(=O)c2cc3c(s2)CCC(C)C3)cc1OCC (stereo not given) 3.98 µM [inhibitor, full curve, poor fit]
Cc1ccc(NC(=S)N(CCN2CCCCC2)Cc2ccco2)cc1C 50.1 µM [inhibitor, partial curve]

Potency, active:
CCN(CC)CCCN=C1N[C@@H](c2ccccc2)C(C(=O)OC)=C(C)N1CC 31.6 µM
COc1ccccc1-n1cnc2cc(NCc3cccs3)ccc21 44.7 µM
Cc1c(NC(=O)CN2CC(C)OC(C)C2)c(=O)n(-c2ccccc2)n1C (stereo not given) 11.2 µM
C=C(C)C(=O)Nc1cccc(C2=NOC3(C2)C[C@@H](C(N)=O)N(C(=O)/C=C/CC)C3)c1 (stereo not given in full) 10 µM
CCN1/C(=C/C(=S)Nc2ccccc2)Sc2ccccc21 50.1 µM
CCOc1ccc(CN2CCN(Cc3ccc4c(c3)c3ccccc3n4CC)CC2)cc1 22.4 µM
C#CCOCCOCCOCCNc1nc(N2CCN(C(=O)CCCCCCCCCCNC(=O)[C@H]([C@@H](C)CC)n3cc(CCCCCN)nn3)CC2)nc(N2CCN(C(=O)CCCCCCCCCCNC(=O)[C@@H]([C@H](C)O)n3cc(C)nn3)CC2)n1 56.2 µM
CCC(CO)Oc1cc(NCc2ccc(Cl)cc2)c2ncn(C(C)C)c2c1 (stereo not given) 50.1 µM
O=C(Nc1ccc(N2CCCCC2)cc1)c1ccc2ccccc2n1 20 µM
COc1ccc(Nc2ccc(OC)cc2)cc1 50.1 µM
COc1ccc(S(=O)(=O)N2CCN(Cc3cccc([N+](=O)[O-])c3)CC2)cc1 20 µM
O=C(COc1ccccc1)Nc1ccc(S(=O)(=O)NCc2ccco2)cc1 50.1 µM
CSc1ccccc1NC(=O)c1noc2c1CCC2 50.1 µM
CCN(CC)CCOC(=O)c1ccc(N/C=C(/C#N)c2nc(-c3ccc(OC)cc3)cs2)cc1 56.2 µM

Activity change, negative = inhibition, inactive:
O=C(CCCn1nnnc1CN1CCOCC1)N1CCC(c2ccc(F)cc2)C1 (stereo not given) -4.14%
COc1ccc(Br)cc1C(=O)NC(=S)Nc1ccc(Cl)c(C(=O)O)c1 -21.8%
COc1cc(NC(=O)N2CCSc3ccccc32)cc(OC)c1OC -25.4%
COc1ccc(C(=O)Nc2ccc3nc4c(c(Nc5ccccc5OC)c3c2)CCCC4)c(OC)c1 -22.5%
Clc1ccc(CSc2ncccn2)cc1 61.3%
Cc1ccccc1NC(=O)c1cccc(Cn2cc(Br)c([N+](=O)[O-])n2)c1 -5.36%
COc1ccc(OC)c(C2CC(=O)c3c([nH]c(C(=O)OCc4ccc(C)cc4)c3C)C2)c1 (stereo not given) -29.1%
Cc1ccc(CCNC(=O)c2cnc3c(-c4ccc(F)cc4)c(C)nn3c2C)cc1 2%
CCOC(=O)N1CCC(NC(=O)c2cnn(-c3ccc(OC)cc3)c2C2CCN(C(=O)OC(C)(C)C)CC2)CC1 -1.62%
CCCCN(C(=O)C1=NN(c2ccccc2)C(=O)CC1)c1c(N)n(CC(C)C)c(=O)[nH]c1=O -3.72%
COc1c(C)cc(C(=O)C2CCCN(C(=O)/C=C/c3ccccn3)C2)cc1C (stereo not given) -13.3%
O=C(/C(=C\c1ccccc1)c1nc2ccccc2[nH]1)c1ccc(Cl)cc1 -2.08%
COc1ccc(C2C3=C(CC(C)(C)CC3=O)N(CC(=O)O)C3=C2C(=O)CC(C)(C)C3)cc1OC 8.59%
COc1cc2[nH]c3c(N4CCN(c5ccccn5)CC4)ncnc3c2cc1OC -28.1%
C#CCOCCOCCOCCNc1nc(N2CCN(C(=O)[C@H]([C@@H](C)CC)n3cc(CCCCN)nn3)CC2)nc(N2CCN(C(=O)[C@H](CCCCN)n3cc(CC(C)O)nn3)CC2)n1 (stereo not given in full) -34%
CC(C)SCCCOc1ccc(C(C)(C)C)cc1 40.5%
COc1cc(NC(=O)CN2Cc3ccccc3C2=O)cc(OC)c1OC 2.31%
COc1ccc(C2C(C(=O)c3ccco3)=C(O)C(=O)N2CC2CCCO2)cc1 (stereo not given) -22.1%
O=C(NC1CCCC1)c1cc(-c2ccc(F)cc2)on1 -9.29%
CN(C)CCN(C(=O)c1cccs1)c1nc2cc3c(cc2s1)OCCO3 -18.5%
CCN(c1ccccc1)S(=O)(=O)c1ccc(C(=O)NCc2ccccn2)cc1 -8.97%
